{"source": "PubChem BioAssay (NCATS)", "key": {"[1]": {"assay": "AP1 Signaling Pathway (AID 357); note: top concentration of the series differs between compounds; % is set by controls: 0 for no effect and ±100 for the full control effect", "conditions": "ME-180 AP-1-bla reporter, EGF-induced, beta-lactamase ratio, 5 h", "outline": "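AP-1-bla ME-180 cells with beta-lactamase reporter under AP-1 response element, stimulated with EC50 EGF; compounds titrated, 5 hours at 37 degrees Celsius. CCF4 read at 460/530 nm ratio; positive and negative modulators judged by AC50.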"}, "[2]": {"biological_target": "Cytochrome P450 1A2 (Homo sapiens) (UniProt P05177)", "sequence (P05177 whole entry, looked up)": "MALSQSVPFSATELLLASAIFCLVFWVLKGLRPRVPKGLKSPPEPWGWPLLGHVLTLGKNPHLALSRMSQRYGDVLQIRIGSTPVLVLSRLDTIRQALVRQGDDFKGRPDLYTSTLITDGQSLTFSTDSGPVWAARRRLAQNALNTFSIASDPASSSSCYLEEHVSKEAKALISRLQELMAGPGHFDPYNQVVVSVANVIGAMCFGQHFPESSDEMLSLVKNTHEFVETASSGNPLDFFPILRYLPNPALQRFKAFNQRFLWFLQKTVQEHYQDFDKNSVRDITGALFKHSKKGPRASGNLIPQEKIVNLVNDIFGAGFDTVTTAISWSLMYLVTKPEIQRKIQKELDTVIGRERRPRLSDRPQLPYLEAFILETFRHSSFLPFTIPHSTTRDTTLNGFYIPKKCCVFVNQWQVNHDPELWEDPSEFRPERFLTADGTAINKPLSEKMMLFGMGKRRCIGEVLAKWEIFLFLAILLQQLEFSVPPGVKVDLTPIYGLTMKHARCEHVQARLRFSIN", "assay": "p450-cyp1a2 (AID 410; calls by dose curve; note: potency is the fitted concentration of half-maximal effect; for activity change, negative = inhibition: top concentration of the series differs between compounds)", "outline": "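Luminescent readout of luciferin formed from Luciferin-ME by human CYP1A2; data normalized against complete inhibition by 57 uM furafylline. Enzyme 20nM, substrate 100uM at Km, 100mM KPO4 buffer, 60 min reaction at room temperature.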"}, "[3]": {"assay": "NFAT Signaling Pathway (AID 444);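 note: carbachol stimulus at about its EC50 of 1 µM final; % is set by controls: 0 for no effect and ±100 for the full control effect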", "conditions": "Jurkat NFAT-bla M1, carbachol, beta-lactamase ratio, 5 h; at 17.2 µM (top of the series) unless noted", "outline": "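Jurkat cells carrying an NFAT-driven β-lactamase reporter and co-transfected muscarinic M1 receptor were treated with compound plus carbachol (1 uM final, an EC50 level) for 5 h at 37 °C. CCF4 loading followed for 1 h at RT; 460/530 nm ratio gave %activity.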"}, "[4]": {"assay": "Stat Signaling Pathway (AID 446);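 note: ME-180 cervical cancer cells given 40 pM IL-6 alongside compound; top concentration of the series differs between compounds; % is set by controls: 0 for no effect and ±100 for the full control effect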", "conditions": "ME-180 SIE beta-lactamase reporter, IL-6 stimulated, 5 h; at 7.69 µM (top of the series) unless noted", "outline": "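ME-180 cells carrying a SIE-driven beta-lactamase reporter are stimulated with 40 pM IL-6 for 5 h at 37C in the presence of compound. The 460/530 nm FRET substrate ratio is read after 2.5 h at RT. Data are normalised to 300 pM IL-6 and to 125 nM JAK inhibitor controls.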"}, "[5]": {"biological_target": "Cytochrome P450 2C9 (Homo sapiens) (UniProt P11712)", "sequence (P11712 whole entry, looked up)": "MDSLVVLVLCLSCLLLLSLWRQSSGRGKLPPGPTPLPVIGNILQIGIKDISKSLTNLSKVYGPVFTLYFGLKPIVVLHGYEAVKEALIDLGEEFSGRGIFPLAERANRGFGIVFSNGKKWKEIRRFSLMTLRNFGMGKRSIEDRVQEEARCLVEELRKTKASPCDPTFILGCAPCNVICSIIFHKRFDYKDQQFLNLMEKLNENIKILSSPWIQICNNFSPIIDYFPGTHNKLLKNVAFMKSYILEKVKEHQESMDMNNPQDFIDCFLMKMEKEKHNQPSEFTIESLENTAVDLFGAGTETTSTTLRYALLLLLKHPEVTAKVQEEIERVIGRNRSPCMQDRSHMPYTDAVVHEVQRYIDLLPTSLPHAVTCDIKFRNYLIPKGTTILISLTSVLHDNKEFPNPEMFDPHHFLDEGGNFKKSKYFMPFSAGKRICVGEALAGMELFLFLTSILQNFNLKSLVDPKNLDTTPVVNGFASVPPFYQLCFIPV", "assay": "qHTS Assay for Inhibitors and Substrates of Cytochrome P450 2C9 (AID 883; active = well fitted inhibition curve with a large enough effect; inconclusive = small, poorly fitted or top-dose-only effect; inactive = no such curve, though single readings can be large or run the other way; note: potency is the fitted concentration of half-maximal effect; nearly all actives have a fitted effect of over 60% in size)", "conditions": "recombinant CYP2C9, luciferin-H luminescence, 60 min; activity change, negative = inhibition: at 57.1 µM (top of the series)", "outline": "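CYP2C9 deoxyluciferin hydroxylation, 37C, 60 min with NADPH regeneration; 10nM enzyme, 100uM Luciferin-H (KM). Glo detection reagent stopped reaction; luminescence normalized to sulphaphenazole (57uM) full inhibition.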"}, "[6]": {"assay": "qHTS Assay for Identification of Small Molecule Agonists for Hypoxia Response Element Signaling Pathway (AID 914; active = well fitted activation curve with a large enough effect in the signal ratio, with a control signal flat, not every such curve was filed as active; inconclusive = small, poorly fitted or top-dose-only effect, or effect the other way, or a change in a side signal; the % refers to the signal ratio; note: potency is the fitted concentration of half-maximal effect)", "conditions": "ME-180 HRE-bla reporter, beta-lactamase ratio, CoCl2, 17 h; activation: active compounds read high", "outline": "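HRE-bla ME-180 cells, overnight plating in Opti-MEM with 0.5% dialyzed FBS; cpd titration + EC50 CoCl2, 17 h, 37 degrees Celsius; CCF4 2.5 h RT; 460/530 nm ratio; AC50.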"}, "[7]": {"biological_target": "Cytochrome P450 2D6 (Homo sapiens) (UniProt P10635)", "sequence (P10635 whole entry, looked up)": "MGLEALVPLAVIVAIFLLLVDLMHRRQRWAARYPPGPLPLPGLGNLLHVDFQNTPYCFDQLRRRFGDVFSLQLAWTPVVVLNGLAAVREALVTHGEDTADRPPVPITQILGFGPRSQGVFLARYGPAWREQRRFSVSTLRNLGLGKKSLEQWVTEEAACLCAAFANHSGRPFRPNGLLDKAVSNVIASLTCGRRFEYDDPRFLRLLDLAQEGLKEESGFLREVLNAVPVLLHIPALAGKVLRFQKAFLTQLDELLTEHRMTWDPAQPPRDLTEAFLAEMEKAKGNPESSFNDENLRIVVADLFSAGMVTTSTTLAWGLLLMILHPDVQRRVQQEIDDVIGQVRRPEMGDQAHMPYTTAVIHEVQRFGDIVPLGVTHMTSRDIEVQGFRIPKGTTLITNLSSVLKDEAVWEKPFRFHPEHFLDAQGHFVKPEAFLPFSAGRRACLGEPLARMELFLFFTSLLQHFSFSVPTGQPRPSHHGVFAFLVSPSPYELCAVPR", "assay": "qHTS Assay for Inhibitors and Substrates of Cytochrome P450 2D6 (AID 891; active = well fitted inhibition curve with a large enough effect; inconclusive = small, poorly fitted or top-dose-only effect; inactive = no such curve, though single readings can be large or run the other way;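 note: luciferin methyl ether substrate demethylated by CYP2D6 with NADPH regeneration; potency is the fitted concentration of half-maximal effect; nearly all actives have a fitted effect of over 60% in size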)", "conditions": "recombinant CYP2D6, luciferin-ME EGE luminescence; activity change, negative = inhibition: at 57.1 µM (top of the series)", "outline": "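Human CYP2D6 (5 nM) with 30 uM Luciferin-ME EGE (at Km) in 100 mM KPO4, compound preincubated 10 min, then NADPH regeneration system for 60 min at room temperature. Luciferin read by luminescence; normalized to 1.43 uM quinidine.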"}, "[8]": {"assay": "qHTS Assay for Identification of Small Molecule Antagonists for NFkB Signaling Pathway (AID 895; active = well fitted inhibition curve with a large enough effect in the signal ratio, with a control signal flat, not every such curve was filed as active; inconclusive = small, poorly fitted or top-dose-only effect, or effect the other way, or a change in a side signal; the % refers to the signal ratio; note: % is set by controls: 0 for no effect and ±100 for the full control effect)", "conditions": "NFkB beta-lactamase reporter cells, FRET ratio 460/530, stimulated with 10 pM TNF alpha; activity change, negative = inhibition: at 38.3 µM (top of the series)", "outline": "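NFkB-bla ME-180 cervical carcinoma cells with beta-lactamase reporter under NFkB response element; compounds added, then TNF alpha at 10 pM final (EC50), 5 h at 37 C. LiveBLAzer substrate 2 h, room temperature; emission 460/530 nm at 405 nm excitation.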"}, "[9]": {"conditions": "at 17.2 µM (top of the series) unless noted"}}, "note": "Inconclusive means that the source gave no clear call. Such entries were picked first, then a sample of the others. For some assays here: Where the call is inconclusive, the potency comes from a doubtful curve fit. Active and inactive are the calls of the source. Unless noted, calls come from the whole dose curve; as a rule, active = well fitted curve in either direction with a large enough effect (not every such curve was filed as active); inconclusive = small, poorly fitted or top-dose-only effect, or another doubt; inactive = flat fitted curve, though single readings scatter. Tags give direction and shape of the fitted curve or compound fluorescence and quenching.", "data": [{"smiles": "Cc1[nH]c2ccccc2c1-c1cc(-c2cc(-c3c(C)[nH]c4ccccc34)on2)no1", "values": [{"measurement": "activity change, negative = inhibition", "setting": "[1]; [9]", "result": "inactive: 5.07% [at 7.69 µM]"}, {"measurement": "Potency", "setting": "[2]", "result": "active: 398 nM"}]}, {"smiles": "CC(CO)(CO)N=Cc1cc(I)cc(I)c1O", "values": [{"measurement": "activity change, negative = inhibition", "setting": "[1]; [9]", "result": "inconclusive: -36.1% [inhibitor] [at 7.69 µM]"}, {"measurement": "Potency", "setting": "[2]", "result": "inconclusive: 1580 nM [decreasing]"}, {"measurement": "activity change, negative = inhibition", "setting": "[3]", "result": "inconclusive: -104% [inhibitor] [at 7.69 µM]"}, {"measurement": "activity, negative = inhibition", "setting": "[4]", "result": "inactive: -24.6%"}, {"measurement": "Potency", "setting": "[5]", "result": "inconclusive: 6310 nM [inhibitor, single point]"}, {"measurement": "Potency", "setting": "[6]", "result": "inconclusive: 3160 nM [inhibitor, single point]"}]}, {"smiles": "COc1ccc(C2C(C#N)=C(N)SC(N)=C2C#N)cc1OC", "values": [{"measurement": "activity change, negative = inhibition", "setting": "[1]; [9]", "result": "inactive: 5.54%"}]}, {"smiles": "COC(=O)c1ccn(C(=O)c2ccc(Cl)cc2)n1", "values": [{"measurement": "activity change, negative = inhibition", "setting": "[1]; [9]", "result": "inconclusive: -44.9% [inhibitor]"}]}, {"smiles": "CC(C)(N)C(=O)N[C@@H]1C(=O)N2[C@@H]1SC(C)(C)[C@H]2C(=O)O", "values": [{"measurement": "activity change, negative = inhibition", "setting": "[1]; [9]", "result": "inactive: -6.43% [at 7.69 µM]"}, {"measurement": "activity change, negative = inhibition", "setting": "[2]", "result": "inactive: 4.4% [at 2.29 µM]"}]}, {"smiles": "Nc1ncnc2c1ncn2C[C@@H](O)C(=O)O", "values": [{"measurement": "activity change, negative = inhibition", "setting": "[1]; [9]", "result": "inactive: 8.44% [at 7.69 µM]"}]}, {"smiles": "COc1cc2c(c(OC)c1OC)-c1ccc(OC)c(=O)cc1[C@H](NC(C)=O)CC2", "values": [{"measurement": "activity change, negative = inhibition", "setting": "[1]; at 17.2 µM (top of the series)", "result": "inconclusive: 25.1% [activator]"}, {"measurement": "activity change, negative = inhibition", "setting": "[1]; at 38 µM (top of the series)", "result": "inconclusive: 41.9% [activator]"}]}, {"smiles": "O=C(c1ccc(-n2cnnn2)cc1)N1CCOCC1", "values": [{"measurement": "activity change, negative = inhibition", "setting": "[1]; [9]", "result": "inactive: 10.3%"}]}, {"smiles": "CCCCC(=O)c1c(C)cc(C)[nH]c1=O", "values": [{"measurement": "activity change, negative = inhibition", "setting": "[1]; [9]", "result": "inconclusive: 0.548% [activator]"}]}, {"smiles": "NCCOC[C@H](N)C(=O)O", "values": [{"measurement": "activity change, negative = inhibition", "setting": "[1]; [9]", "result": "inactive: 3.26% [at 7.69 µM]"}]}, {"smiles": "O=C(c1csnn1)N1CCC2(CCCN(C(c3ccccc3)c3ccccc3)C2)CC1", "values": [{"measurement": "activity change, negative = inhibition", "setting": "[1]; [9]", "result": "inconclusive: 64% [activator] [at 7.69 µM]"}]}, {"smiles": "O=C1C=CC(=O)c2c1ccc1c2ccc2ccccc21", "values": [{"measurement": "activity change, negative = inhibition", "setting": "[1]; [9]", "result": "inconclusive: -77.4% [inhibitor]"}, {"measurement": "Potency", "setting": "[2]", "result": "active: 794 nM"}, {"measurement": "activity change, negative = inhibition", "setting": "[3]", "result": "active: -25.7%"}, {"measurement": "activity, negative = inhibition", "setting": "[4]", "result": "inconclusive: -31.1% [inhibitor] [at 17.2 µM]"}, {"measurement": "Potency", "setting": "[7]", "result": "inconclusive: 5010 nM [inhibitor, single point]"}]}, {"smiles": "Cc1cccc(N2CN=c3s/c(=C\\c4ccncc4)c(=O)n3C2)c1", "values": [{"measurement": "activity change, negative = inhibition", "setting": "[1]; [9]", "result": "inconclusive: -41.4% [inhibitor]"}]}, {"smiles": "O=C(Nc1nccs1)NC(C(F)(F)F)C(F)(F)F", "values": [{"measurement": "activity change, negative = inhibition", "setting": "[1]; [9]", "result": "inactive: -10.3%"}]}, {"smiles": "CC(=O)Nc1ccc(Oc2ccc3nc(C)[nH]c3c2)cc1", "values": [{"measurement": "activity change, negative = inhibition", "setting": "[1]; [9]", "result": "inactive: -4.84%"}]}, {"smiles": "COc1cc([C@H]2c3cc4c(cc3[C@@H](O)[C@@H]3COC(=O)[C@H]23)OCO4)cc(OC)c1OC", "values": [{"measurement": "activity change, negative = inhibition", "setting": "[1]; at 17.2 µM (top of the series)", "result": "inconclusive: 40.5% [activator]"}, {"measurement": "activity change, negative = inhibition", "setting": "[1]; at 38 µM (top of the series)", "result": "inconclusive: 32.6% [activator]"}, {"measurement": "activity change, negative = inhibition", "setting": "[3]", "result": "inconclusive: -3.47% [inhibitor]"}, {"measurement": "Potency", "setting": "[8]", "result": "inactive"}]}, {"smiles": "CCCCN1C(=O)C(O)=C(C(C)=O)C1c1ccc(OC)cc1OC", "note": "(configuration not stated)", "values": [{"measurement": "activity change, negative = inhibition", "setting": "[1]; [9]", "result": "inactive: 8.36%"}]}]}
